Measurements reported in publication PMC4336329 (PLoS ONE, 2015).
The whole screen tested about 310,000 compounds, of which about 14,000 (4.5%) showed an effect of 50% or more. Effects have a minus sign here. The list shows a part of the results.

target: human ether-à-go-go-related gene (hERG) potassium channel (human, UniProt Q12809); assay: primary screen, population patch clamp on CHO cells stably expressing hERG
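Further: peak tail current of the secondary pulse compared with the same well before compound.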

Sequence of human ether-à-go-go-related gene (hERG) potassium channel (Q12809 whole entry, looked up): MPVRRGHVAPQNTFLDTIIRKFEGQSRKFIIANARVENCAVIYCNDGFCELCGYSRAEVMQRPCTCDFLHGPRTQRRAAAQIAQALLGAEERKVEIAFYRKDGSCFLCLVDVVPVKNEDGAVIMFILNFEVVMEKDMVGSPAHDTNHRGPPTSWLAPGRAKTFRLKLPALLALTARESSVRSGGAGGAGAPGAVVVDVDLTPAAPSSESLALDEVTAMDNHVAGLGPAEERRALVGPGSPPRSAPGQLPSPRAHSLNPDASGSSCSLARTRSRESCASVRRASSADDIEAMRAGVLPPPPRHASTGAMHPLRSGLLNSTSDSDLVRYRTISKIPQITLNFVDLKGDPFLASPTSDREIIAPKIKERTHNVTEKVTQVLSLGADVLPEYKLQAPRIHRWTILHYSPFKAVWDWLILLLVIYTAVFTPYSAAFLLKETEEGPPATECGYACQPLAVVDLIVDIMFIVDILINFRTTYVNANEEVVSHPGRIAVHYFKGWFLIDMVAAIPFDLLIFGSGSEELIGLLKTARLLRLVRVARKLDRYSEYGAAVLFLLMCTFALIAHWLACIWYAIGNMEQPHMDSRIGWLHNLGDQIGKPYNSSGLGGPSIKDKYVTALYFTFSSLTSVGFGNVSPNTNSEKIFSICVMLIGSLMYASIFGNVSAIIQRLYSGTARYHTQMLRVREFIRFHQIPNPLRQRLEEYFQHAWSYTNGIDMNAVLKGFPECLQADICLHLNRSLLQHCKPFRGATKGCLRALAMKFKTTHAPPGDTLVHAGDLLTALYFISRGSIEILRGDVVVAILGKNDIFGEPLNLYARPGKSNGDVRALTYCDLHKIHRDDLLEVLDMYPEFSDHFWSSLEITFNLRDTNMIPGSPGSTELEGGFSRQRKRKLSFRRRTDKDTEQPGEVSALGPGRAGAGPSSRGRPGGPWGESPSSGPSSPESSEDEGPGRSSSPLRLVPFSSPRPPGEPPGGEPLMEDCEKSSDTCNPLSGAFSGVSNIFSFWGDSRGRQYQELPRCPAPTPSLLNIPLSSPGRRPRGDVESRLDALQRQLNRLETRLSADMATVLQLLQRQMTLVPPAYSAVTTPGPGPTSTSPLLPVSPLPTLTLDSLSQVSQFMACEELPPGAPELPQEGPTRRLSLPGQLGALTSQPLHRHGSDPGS

SMILES | hERG current change (%, negative = inhibition) at 10uM
S=c1[nH]nc(-c2ccc(Br)cc2)n1-c1ccc2c(c1)OCCO2 | 9.06%
COc1ccccc1NC(=O)CCSc1nnc(-c2ccco2)o1 | 5.01%
CC1CCN(c2ccccc2NC(=O)c2cc([N+](=O)[O-])ccc2N2CCOCC2)CC1 | -2.63%
O=C(CSc1ccc2nnc(-c3ccc(Cl)cc3)n2n1)N1CCc2ccccc21 | -3.33%
CS(=O)(=O)Nc1ccc(C(=O)NC2CCCCC2)cc1 | -0.845%
COC(=O)CCC(=O)OC1(C)C(=O)C2=CN(CCCCO)C(c3ccc(OC)cc3)=CC2=C(Br)C1=O (stereo not drawn) | 6.94%
O=c1[nH]c2ccccc2nc1/C=C/c1ccccc1 | 18.6%
Cc1oc2c(c(C)cc3oc(=O)c(CC(=O)NCCCO)c(C)c32)c1C | 24%
O=C(Cn1nnc2ccccc2c1=O)NC1CCCc2ccccc21 (stereo not drawn) | -0.676%
Cc1ccc(NC(=O)COC(=O)CCn2c(C)csc2=O)c([N+](=O)[O-])c1 | -16.9%
COc1ccc(/C=N/NC(=O)CCc2n[nH]c(=O)[nH]c2=O)cc1OC | 0.501%
CC(C)(C)NS(=O)(=O)c1ccc(CCC(=O)N2CCOCC2)cc1 | -20%
Cc1c(C)c2c(OCC(=O)N3CCC[C@H]3C(=O)O)cc3c(c2oc1=O)CCC(C)(C)O3 | 3.8%
Cc1ccc(NC(=S)NNC(=O)c2ccccc2O)c(C)c1 | 15.6%
COCCn1c(C)cc(C(=O)COC(=O)CCS(=O)(=O)c2ccc(C)cc2)c1C | -24.9%
CCOc1c(Br)cc(CNC2CCCCCCC2)cc1OC.Cl | -8.71%
CCC1CCc2sc(C(=O)N3CCN(c4ccccn4)CC3)cc2C1 (stereo not drawn) | -11.5%
O=C(Nc1ccc2c(c1)OCCO2)C1CCN(S(=O)(=O)Cc2ccccc2)CC1 | 12.8%
COc1cccc(N2CCN(C(=O)CSc3ccc(F)cc3)CC2)c1 | -38.5%

SMILES | hERG current change (%, negative = inhibition) at 10uM
Nc1ccc(C(=O)Oc2ccc([N+](=O)[O-])cc2)cc1 | 10.9%
O=C(NCc1cccnc1)C1CCCN(S(=O)(=O)c2ccccc2)C1 (stereo not drawn) | 9.79%
Cc1ccc(C2=NN3C(C2)c2ccccc2OC32C(=O)Nc3ccccc32)cc1 (stereo not drawn) | 12.2%
O=C1CSC(c2ccncc2)N1Cc1ccccc1 (stereo not drawn) | 17%
O=[N+]([O-])c1cc(Cl)c(Cl)cc1Cl | 17.9%
Cc1ccc2oc(=O)c(/C=C(\O)CC(C)C)nc2c1 | 21.8%
O=C(O)c1cc(Cl)c2c(c1)OCO2 | 9.3%
O=C1CCCCC/C1=N/Nc1ccc(OCc2ccccc2)cc1 | 17.3%
CCCOc1ccc(/C(O)=C2/C(=O)C(=O)N(CCCn3ccnc3)C2c2cccnc2)cc1 (stereo not drawn) | -8.08%
Cc1cccnc1NCc1ccc(O)c2ncccc12 | 19.5%
COCCn1c(N)c(N(Cc2ccccc2)C(=O)Cc2c(Cl)cccc2Cl)c(=O)[nH]c1=O | -14%
O=C(CSc1ccc(-c2cccnc2)nn1)Nc1ccccc1C(F)(F)F | 5.77%
O=C(CSc1nc2c(c(C(F)(F)F)n1)CCc1ccccc1-2)NCc1ccccc1 | 6.56%
Cc1cc(C)cc(C(=O)NC(CC(N)=O)c2ccc(N3CCC(N4CCCCC4)CC3)c([N+](=O)[O-])c2)c1 (stereo not drawn) | 9.54%
O=C(Cc1c(Cl)cccc1Cl)NC1CC1 | 28.2%
CCC(NC(C)C)C(O)c1ccc(O)c(O)c1.CS(=O)(=O)O (stereo not drawn) | 19%
COc1cccc(/C=C/C(=O)Oc2ccc(C(=O)c3ccc(F)cc3)cc2)c1 | 15%
CCOC(=O)Cc1[nH]nc2c1C(C1C=CCCC1)C(C#N)=C(N)O2 (stereo not drawn) | -8.29%
Cc1cccc(NC(=O)c2cc([N+](=O)[O-])ccc2Cl)c1O | 6.16%

SMILES | hERG current change (%, negative = inhibition) at 10uM
O=C(Oc1cccc(/C=N/Nc2nc(Nc3ccccc3)nc(N3CCOCC3)n2)c1)c1ccco1 | 9.05%
Brc1ccc(CSc2nnc3ccccn23)cc1 | -18.7%
Clc1ccccc1CN1CCN(c2ncccn2)CC1 | 10.5%
Cc1cccc(OCCn2cnc(Cl)c2Cl)c1 | 4.18%
COc1nc(Cc2ccc(Cl)cc2)nc2ccccc12 | -29.2%
Cc1cccc(OC2CCN(Cc3nc(CC4CC4)no3)CC2)c1 | -1.64%
O=C(Nc1cccc2ccccc12)c1ccccc1Cl | 6.68%
O=C1NCCCc2c1oc1cc(Br)c(O)c(Br)c21 | -6.96%
O=C(O)c1cccc(Nc2ccc3nonc3c2[N+](=O)[O-])c1 | -0.901%
Cc1ccc(NC(=S)NC2CCCC2)c(C)c1 | 13.6%
Cc1ccccc1C(=O)N/N=C/c1ccccn1 | 5.6%
Cc1ccc(CN(C)C(=O)c2ccc(NS(=O)(=O)c3ccc4[nH]c(=O)[nH]c4c3)cc2)cc1 | 18.3%
COc1ccc(-c2ccnc3cc(C(=O)O)nn23)cc1 | 31.5%
C/C=C/c1ccc(OCCn2cncn2)c(OC)c1 | -3.39%
CCN(c1ccccc1)S(=O)(=O)c1cc(C(=O)Oc2ccc3c(C)cc(=O)oc3c2)ccc1C | -9.09%
O=C(COC(=O)c1cc(S(=O)(=O)N2CCOCC2)ccc1F)Nc1ccc(Cl)cn1 | -37.4%
CCOc1ccc(S(=O)(=O)N2CCOCC2)cc1NC(=O)CN1C(=O)NC2(CCCC2)C1=O | 5.87%
O=C(CN1CCSCC1)N/N=C/c1ccccc1F | 0.735%
CO/N=C(/CNC(=O)c1cccc(Cl)c1)c1ccc(Cl)cc1 | -0.994%
